Molecules are shown by their SMILES. The list shows a part of the results. Single values of this set are uncertain. Values with irradiation are relative to irradiated vehicle.

The subject of the experiment is A549-Dual. Nature of the experiment: ISRE reporter (Lucia luciferase) activity, viability-corrected, relative to vehicle (fold change vs vehicle); higher = more activation of STING-IRF / NF-kB immune response reporter. As to conditions: 10 µM; irradiation: 8 Gy/4 fr.
In turn, `CC(Cc1ccc(O)cc1)NCC(O)c1cc(O)cc(O)c1` (configuration not stated) [Fenoterol] yielded an ISRE reporter of 0.827.

The compound `CNCC(=O)c1ccc(O)c(O)c1.Cl` [Adrenalone HCl] yielded an ISRE reporter of 0.575.

Compound `CN1c2ccccc2C(NCCCCCCC(=O)[O-])c2ccc(Cl)cc2S1(=O)=O.[Na+]` (configuration not stated) [Tianeptine sodium] gave an ISRE reporter of 0.7.

`CCCC[N+]1(C)C2CC(OC(=O)C(CO)c3ccccc3)CC1C1OC12.[Br-]` (configuration not stated) [Butylscopolamine Bromide] had an ISRE reporter of 0.544.

`COc1ccc(OC)c(C(O)C(C)N)c1.Cl` (configuration not stated) [Methoxamine HCl]: the ISRE reporter stood at 0.429.

For `COC12CC(COC(=O)c3cncc(Br)c3)CN(C)C1Cc1cn(C)c3cccc2c13` (configuration not stated) [Nicergoline], the ISRE reporter was 0.87.

Take `O=c1[nH]c2ccccc2n1C1CCN(CCCC(c2ccc(F)cc2)c2ccc(F)cc2)CC1` [Pimozide]: the ISRE reporter was found to be 0.225.

In turn, `CC(C)CC1C(=O)N2CCCC2C2(O)OC(NC(=O)C3C=C4c5cccc6[nH]c(Br)c(c56)CC4N(C)C3)(C(C)C)C(=O)N12.CS(=O)(=O)O` (configuration not stated) [Bromocriptine Mesylate] yielded an ISRE reporter of 0.476.

With `COc1ccc2[nH]cc(CCN)c2c1` [5-Methoxytryptamine], the ISRE reporter stood at 0.607.

For `CCC1(C)CC(=O)NC(=O)C1` [Bemegride], the ISRE reporter came to 1.04.

Take `COc1cccc2c1cc([N+](=O)[O-])c1c(C(=O)O)cc3c(c12)OCO3` [Aristolochic acid A]: the ISRE reporter was found to be 0.818.

Compound `CCCN1CC(CSC)CC2c3cccc4[nH]cc(c34)CC21.CS(=O)(=O)O` (configuration not stated) [Pergolide Mesylate] came in with an ISRE reporter of 0.78.

Values taken from the supplement of paper PMC9174493.
